Measurements as given in the supplement of paper PMC10338343.
± gives the standard deviation. The list shows a part of the results, in another mix than the full data.

system: MIWI (PIWIL1) piRISC loaded with L1MC piRNA (30 nt); assay: pre-steady-state target cleavage rate (min^-1); MIWI and MILI are mouse PIWI proteins and EfPiwi is from a freshwater sponge; tags in brackets are library labels; higher = faster piRNA-guided slicing of the target; conditions: guide: L1MC piRNA 5'p-UAACUAAAUACUAUGCAAGCUGUAGGUCCU; auxiliary factor: 500 nM mouse GTSF1
Method in brief: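 A transcribed, DNA-blocked target RNA library […] was incubated at 33 °C for 0–8 or 0–960 min with 1 nM active affinity-purified piRISC carrying one synthetic guide, in HEPES–potassium acetate buffer with or without 500 nM GTSF1 partner protein. Uncleaved targets were then sequenced and normalised to depth and to weakly complementary targets. Data from three trials were pooled, with k3 capped at 0.0001 min^-1, and a burst-and-steady-state fit yielded the pre-steady-state cleavage rate.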
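Also: 1 nM active piRISC with 0.1 nM target library at 33 °C single turnover.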

Sequence | pre-steady-state target cleavage rate
UCCUGGAACAGCUUGCAUAGUAUUUGUUA | 0.177 ± 0.031
UCCUCCUACAGCUUGGUUAGUAUUUUCAAA | 0.0342 ± 0.014
UCGACCUACAGCUACCAUAGUAUUUAGUAA | 0.355 ± 0.037
UCCUGCUUGUGCUUGCAUAGUAUUUUCAAA | 0.0168 ± 0.0052
UCCUGGUACAGCUACCAUAGUAUUUAGAAA | 0.015 ± 0.0072
UCGACCUUGUGCUUGCAUAGUAUUUUCAAA | 0.0817 ± 0.015
UCCUGGAUCAGCUUCGAUAGUAUUUAGUAA | 0.0137 ± 0.0063
UCCUGGAUGUCGAAGCAUAGUAUUUGAGUUA | 0.0058 ± 0.0038
UCCUGGAACACGAUGCAUAGUAUUUAGUAA | 0.0185 ± 0.0056
AGGACCUACAGCUUGGUUAGUAUUUUCAAA | 0.0563 ± 0.019
UCCUGGAACAGCAAGCAUAGUAUUUACAAA | 0.192 ± 0.048
UCCUGGUACAGCUUGCAUAGUAUAAUGAAA | 0.113 ± 0.025
UCCUGGAUCAGCUUGCCAUAGUAUUUAGUUA | 0.0581 ± 0.0097

same assay, conditions: guide: L1MC piRNA 5'p-UAACUAAAUACUAUGCAAGCUGUAGGUCCU; auxiliary factor: none (no GTSF1)

Sequence | pre-steady-state target cleavage rate
UCCUGGAUGUCGAACGAUGUAUUUAGUUA | < 0.0001
AGGACCUACUGCUUGGAUAGUAUUUAGUUA | 0.061 ± 0.0085
UCCUGCUACAGCAACCAUAGUAUUUUCAAA | < 0.0001
